Out of some 48,000 compounds screened, about 550 (1.1%) were called active. This list was built around the results that the source calls inconclusive (neither active nor inactive); the mix of calls is not that of the screen. Cut-off read from the data, not from the text of the source: active = potency below about 15 µM; inconclusive = mostly about 16 µM to 33 µM; inactive = weaker than that. Potencies of inconclusive entries are left out as doubtful fits.
The molecules below were run against Lysosomal acid glucosylceramidase (Homo sapiens) (UniProt P04062) (assay: Glucocerebrosidase). Conditions: purified enzyme, resorufin glucoside fluorescence (screen aimed at inhibitors), 20 min.
Source text: NCGC Assay Overview: Beta-glucocerebrosidase catalyzes the hydrolysis of beta-glucocerebroside to glucose and ceramide. The inherited deficiency of beta-glucocerebrosidase results in Gaucher disease, which is characterized by a wide variety of symptoms including hepatosplenomegaly, anemia, thrombocytopenia, bony lesions and bone marrow infiltration with characteristic storage cells, known as Gaucher cells. There are also forms of the disorder affecting the central nervous system. Patients with the same genotypes can manifest with diverse clinical presentations and it is believed that improper folding and trafficking of beta-glucocerbrosidase may contribute to the phenotypes observed. Low molecular weight molecules, acting as chaperones, may potentially restore trafficking of misfolded beta-glucocerebrosidase from the endoplasmic reticulum to the lysosomes, thereby enhancing functional lysosomal beta-glucocerebrosidase activity. Using normal beta-glucocerebrosidase, an assay was developed to screen for small molecule inhibitors that could potentially act as molecular chaperones on the mutant forms [developed with NIH investigator Dr. Ellen Sidransky's laboratory]. Two pro-fluorescent substrates were chosen for two screens against a small molecule library. One beta-glucocerebrosidase assay used Resorufin beta-D-Glucopyranoside (Marker Gene Technology Inc.), generating a red fluorescent product. The second assay used Fluorescein di-beta-D-Glucopyranoside, generating a blue fluorescent product. […] The IC50 values of Conduritol B Epoxide, a known glucocerebrosidase inhibitor, were determined to be 87.5 uM and 117 uM, respectively. The use of two difference pro-fluorescent substrates in the screens helped to eliminate false positives. All compounds were screened in a titration series resulting in AC50s (e.g., IC50s or EC50s).
NCGC Assay Protocol Summary: Both enzyme and substrate were diluted in buffer composed of 50mM citric acid/KH2PO4, 10mM sodium taurocholate and 0.01% tween-20 at pH 5.9. The final concentration of the enzyme was 0.2 nM in both assays. The compound library was titrated in 7 to 15 concentrations for the primary screens with a final concentration ranging from 0.6 nM to 50 uM. This particular assay protocol is for the "red" substrate, and it was performed in 1536-well plate format as follows: Red fluorescence substrate assay: 2 uL enzyme 23 nL compound 1 uL substrate (final concentration of 30 uM) Incubate at room temperature (RT) for 20 minutes Read the plate in Viewlux plate reader (Ex=548(7) and Em=600(10)).
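Note: the screen sought inhibitors.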
Potency is the fitted concentration of half-maximal effect.

Chain of UniProt P04062 (P04062 whole entry, looked up): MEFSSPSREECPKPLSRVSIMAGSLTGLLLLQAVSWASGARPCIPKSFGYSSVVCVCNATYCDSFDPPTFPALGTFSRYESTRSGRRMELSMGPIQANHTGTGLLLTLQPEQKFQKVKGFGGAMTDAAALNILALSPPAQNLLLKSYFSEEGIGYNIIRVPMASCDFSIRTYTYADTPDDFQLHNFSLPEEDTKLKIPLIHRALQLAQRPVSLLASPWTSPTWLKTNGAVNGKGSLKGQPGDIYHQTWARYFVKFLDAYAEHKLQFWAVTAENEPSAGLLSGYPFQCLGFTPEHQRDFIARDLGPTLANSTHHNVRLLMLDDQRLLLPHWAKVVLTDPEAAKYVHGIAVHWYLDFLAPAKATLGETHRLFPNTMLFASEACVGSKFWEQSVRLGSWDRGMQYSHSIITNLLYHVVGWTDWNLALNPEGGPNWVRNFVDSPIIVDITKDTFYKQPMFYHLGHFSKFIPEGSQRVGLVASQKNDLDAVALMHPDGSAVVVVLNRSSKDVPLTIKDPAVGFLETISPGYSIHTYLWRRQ

SMILES	Potency
Cc1ccc(S(=O)(=O)NCC2CCC(C(=O)N3CCC4(CC3)OCCO4)CC2)cc1 (stereo not drawn)	inconclusive [decreasing]
O=S(=O)(c1ccccc1)N1CN2CCN(C2)C1	active: 13.7 µM
CC(C)c1ccc(O)c(CN2CCN(c3ccccc3)CC2)c1	active: 10.2 µM
N[C@@H](Cc1c[nH]c2ccccc12)c1nnc(SCc2ccccc2)o1	inconclusive [decreasing]
N#CC1=C(N)Oc2c(c(=O)oc3ccccc23)C1c1ccc(OC(=O)N2CCOCC2)cc1 (stereo not drawn)	inconclusive [decreasing]
CCC(=NC1CC1)c1c(O)n(C2CCCCC2)c(=O)[nH]c1=O	inconclusive [decreasing]
Nc1c(C(=O)NCCc2ccccc2)c2nc3ccccc3nc2n1CCN1CCOCC1	inconclusive [decreasing]
Cc1[nH]c2c(Cl)cccc2c1CCN	inconclusive [decreasing]
CC(C)CCOC(=O)c1c(N)n(CC2CCCO2)c2nc3ccccc3nc12 (stereo not drawn)	inconclusive [increasing]
O=C(Cn1ncc2ccsc2c1=O)N1CCC2(CC1)OCCO2	inactive: > 76.9 µM
Fc1ccc(NC2=NCCS2)cc1Cl	inconclusive [decreasing]
Cc1cccc(-n2c(CN3C(=O)c4ccccc4C3=O)nc3ccccc3c2=O)n1	inconclusive [increasing]
O=C1C2CCN(CC2)C1Cc1ccc(OCCOc2ccccc2)cc1 (stereo not drawn)	inconclusive [decreasing]
C=C(C)CSc1nnc([C@@H](N)Cc2c[nH]c3ccccc23)o1	inconclusive [decreasing]
O=C1c2ccccc2C(=O)N1Cc1nc2ccccc2c(=O)n1-c1ccccn1	inconclusive [increasing]
CCN(CC)CCCN=Cc1c(O)n(Cc2ccc(F)cc2)c(=O)[nH]c1=O	inactive: > 76.9 µM
Cc1cccn2c(=O)c3c(nc12)N1CCC(Cc2ccccc2)CC1C1(C3)C(=O)N(C)C(=O)N(C)C1=O (stereo not drawn)	active: 6.33 µM
COCCCNC(=O)c1c(NC(=O)c2ccco2)n(Cc2ccccc2)c2nc3ccccc3nc12	inactive: > 76.9 µM
C=Cn1c(P(=S)(N2CCOCC2)N2CCOCC2)cc2c1CCCC2	inconclusive [decreasing]
CCC(=NCCO)c1c(O)n(C2CCCCC2)c(=O)[nH]c1=O	inconclusive [decreasing]
O=C(Cn1cc(C(=O)c2ccccc2)c2ccccc21)NCc1ccco1	inactive: > 76.9 µM

SMILES	Potency
COc1ccccc1-n1c(O)c(C=NCc2ccc3c(c2)OCO3)c(=O)[nH]c1=O	inconclusive [decreasing]
CCCCCCn1c(N)c(C(=O)NCCN2CCOCC2)c2nc3ccccc3nc21	inconclusive [decreasing]
c1ccc2c(CN3CCN(C4CCCCC4)CC3)c[nH]c2c1	inconclusive [decreasing]
N#Cc1cc2c(nc1SCC(=O)Nc1ccc(Cl)cc1)C1CCN2CC1	inconclusive [decreasing]
CCCNC(=O)c1c(N)n(Cc2ccc3c(c2)OCO3)c2nc3ccccc3nc12	inconclusive [increasing]
Cc1ccc2cc3cc(C(=O)N4CCC5(CC4)OCCO5)oc3nc2c1	inactive: > 76.9 µM
CC(C)=CCSc1nnc([C@@H](N)Cc2c[nH]c3ccccc23)o1	inconclusive [decreasing]
CC(C)c1ccc(OCC(=O)N2CCN(C)CC2)c(Br)c1	inconclusive [decreasing]
CCC(C)NC(=O)c1c(N)n(CC2CCCO2)c2nc3ccccc3nc12 (stereo not drawn)	inconclusive [increasing]
COc1ccc(CN2CCN(C(=O)COc3cccc(C)c3)CC2)c(OC)c1	inconclusive [decreasing]
O=C(CCCn1c(=O)[nH]c2cc(Cl)ccc2c1=O)N1CCC2(CC1)OCCO2	inconclusive [decreasing]
CC(=O)Nc1ccc2c(c1)CC1(C(=O)N(C)C(=O)N(C)C1=O)C1CCCN21 (stereo not drawn)	inconclusive [decreasing]
CCOC(=O)c1c(N)n(Cc2ccc(OC)cc2)c2nc3ccccc3nc12	inactive: > 76.9 µM
CCC(=NCCCN1CCOCC1)c1c(O)n(Cc2ccccc2)c(=O)[nH]c1=O	inconclusive [decreasing]
COCCOC(=O)c1c(N)n(Cc2ccccc2)c2nc3ccccc3nc12	inconclusive [decreasing]
COC(=O)c1c(N)n(Cc2ccc(OC)cc2)c2nc3ccccc3nc12	inconclusive [decreasing]
Nc1c(C(=O)OCC2CCCO2)c2nc3ccccc3nc2n1Cc1cccs1 (stereo not drawn)	inactive: > 76.9 µM
CCC(=NCCCN(CC)CC)c1c(O)n(C2CCCCC2)c(=O)[nH]c1=O	inconclusive [decreasing]
CCc1ccccc1NC(=O)CSc1nnc([C@@H](N)Cc2c[nH]c3ccccc23)o1	inconclusive [decreasing]
CCCCCn1c(N)c(C(=O)NCCN2CCOCC2)c2nc3ccccc3nc21	inactive
O=C1CN=C(c2ccccc2)c2oc3ccc(Br)cc3c2N1	active: 3.26 µM

SMILES	Potency
Cc1ccc2c(c1)C1CN(C)CCC1N2S(=O)(=O)c1ccccc1 (stereo not drawn)	active: 10.5 µM
O=C1CN(C(=O)CN2CCCCC2)C(c2ccccc2)c2cc(Br)ccc2N1 (stereo not drawn)	inconclusive [increasing]
CC(C)Sc1nnc([C@@H](N)Cc2c[nH]c3ccccc23)o1	inconclusive [decreasing]
O=C(CN1C(=O)CN=C(c2ccccc2Cl)c2cc(Cl)ccc21)NCc1ccco1	inconclusive [decreasing]
CN1CCN(c2ccc(N)c(N3CCN(C)CC3)c2)CC1	inactive: > 76.9 µM
O=C1C2CCCN2C(c2cccnc2)N1c1ccc(Cl)cc1 (stereo not drawn)	inconclusive [decreasing]
CN1C(=O)C(C2c3ccccc3C(=O)N2Cc2ccccc2)C(=O)N(C)C1=O (stereo not drawn)	active: 11.5 µM
CCC(=NCc1ccco1)c1c(O)n(C2CCCCC2)c(=O)[nH]c1=O	inconclusive [decreasing]
CCC(=Nc1ccc2c(c1)CCC2)c1c(O)n(C2CCCCC2)c(=O)[nH]c1=O	inconclusive [decreasing]
CCOc1ccc(Br)c(C2(O)CC(C)N(C)CC2C)c1 (stereo not drawn)	inactive: > 76.9 µM
N[C@@H](Cc1c[nH]c2ccccc12)c1nnc(SCc2c(F)cccc2Cl)o1	inconclusive [decreasing]
O=C1CN=C(c2cccs2)c2c(sc3c2CCCC3)N1	inactive: > 76.9 µM
Cc1cccc(NC(=O)CSc2nnc([C@@H](N)Cc3c[nH]c4ccccc34)o2)c1C	inconclusive [decreasing]
CCc1cc2c(s1)NC(=O)CN=C2c1cccs1	inconclusive [decreasing]
CCOC(=O)c1c(C)n(CCN2CCN(C)CC2)c2ccc(OC)cc12	inconclusive [decreasing]
CN(C)C=C1C(=O)N(C2CCCCC2)C(=O)N(C2CCCCC2)C1=O	inconclusive [decreasing]
CC1CCN2c3nc4ccccn4c(=O)c3CC3(C(=O)N(C)C(=O)N(C)C3=O)C2C1 (stereo not drawn)	inactive: > 76.9 µM
CC1=CC(=O)NP(=O)(Oc2ccc3ccccc3c2)N1 (stereo not drawn)	inconclusive [decreasing]
COCCNC(=O)c1c(NC(=O)c2ccco2)n(Cc2ccccc2)c2nc3ccccc3nc12	inconclusive [increasing]
C#CCN1C(=O)C2(C(C#N)=C(N)OC(C)=C2C(=O)OCc2ccccc2)c2ccccc21 (stereo not drawn)	inconclusive [decreasing]
NC1CCCCC1N=Cc1c(O)n(Cc2ccc(F)cc2)c(=O)[nH]c1=O (stereo not drawn)	inconclusive [decreasing]
